Source: the supplement of paper PMC3334620
Whole data set: some 33,000 sequences, median “E-score (-0.5 to 0.5)” near -0.013, cut for the highest 2% near 0.3. The list shows a part of the results.

target: T1, Msn1 (UniProt P22148); experiment: PBM E-score (8-mer binding enrichment) (E-score (-0.5 to 0.5)); higher = stronger / more preferred TF binding; most listed sequences are background and not binding sites; settings: protein concentration: 200 nM; construct: GST-full length
T1 sequence: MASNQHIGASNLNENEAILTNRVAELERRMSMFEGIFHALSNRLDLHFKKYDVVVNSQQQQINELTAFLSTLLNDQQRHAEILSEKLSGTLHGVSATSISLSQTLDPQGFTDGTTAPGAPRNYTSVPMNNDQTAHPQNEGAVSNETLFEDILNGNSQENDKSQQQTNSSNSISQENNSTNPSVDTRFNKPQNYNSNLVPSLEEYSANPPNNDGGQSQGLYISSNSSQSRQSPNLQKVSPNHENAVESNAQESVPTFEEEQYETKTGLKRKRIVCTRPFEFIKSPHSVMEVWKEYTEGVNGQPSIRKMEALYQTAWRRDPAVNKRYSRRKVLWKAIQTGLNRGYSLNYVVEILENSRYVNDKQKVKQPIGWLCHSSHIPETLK
Procedure, shortened: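 Full-length yeast transcription factors or their DNA-binding domains, GST-tagged and expressed with PURExpress, were applied at about 100-200 nM to universal all-10-mer Agilent arrays. These arrays had been made double-stranded by primer extension on fresh or once-stripped slides. Detection used fluorescent anti-GST, normalisation used masliner, and E-scores for ungapped eight-base words pooled with reverse complements came from the Universal PBM Analysis Suite.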

Row | Sequence | PBM E-score
1 | AGTCTACA | -0.165
2 | CAACTGTG | 0.172
3 | AGGGGGCG | -0.416
4 | CAACGCAC | -0.121
5 | ATAATAGC | 0.0442
6 | CTAGTCTC | 0.00797
7 | TACACGTA | 0.104
8 | CCCTACAC | -0.00857
9 | CGTCATCA | 0.0413
10 | AATGAGGT | -0.0411
11 | CTGTGAGC | -0.129
12 | ATCTCGAA | 0.137
13 | ATTTCTGG | 0.193
14 | GGAGGATA | -0.142
15 | AATAGTCA | 0.0144
16 | AGCAGGCC | -0.0677
17 | CTACGCTA | -0.138
18 | AACGTCTC | 0.0533
19 | TGAGGGAA | -0.237
20 | ATTTAAGG | 0.0511
21 | AATCATGG | 0.0997
22 | ATCCTATG | -0.0491
23 | AACGAGCA | 0.00686
24 | ATCTCCGG | 0.199
25 | ATTAATAA | 0.238

Row | Sequence | PBM E-score
26 | GCTCCAAA | -0.0447
27 | ATTGTGGC | 0.104
28 | AAACGACC | 0.081
29 | AAACCTCA | 0.0769
30 | ACACAGGA | 0.187
31 | GCATGAGC | -0.104
32 | CGTCCAGC | -0.0215
33 | CCGTAGTC | -0.159
34 | GAGGACGC | -0.00551
35 | GAATGAGC | -0.02
36 | GAGCTGGC | -0.148
37 | TGTCGCAA | 0.324
38 | AACCCTAG | -0.11
39 | CACGGACC | 0.0127
40 | GTCCGATA | 0.162
41 | AAAACAGC | 0.0586
42 | AGTATCCG | 0.104
43 | ATATCCGA | 0.202
44 | ACGGAGTC | -0.124
45 | CCCCGGTA | -0.208
46 | CACCCCCC | -0.402
47 | AGGTACTA | 0.0722
48 | CAAACTTC | 0.159
49 | CCCTGGGC | -0.306
50 | TCGAGACA | 0.273

Row | Sequence | PBM E-score
51 | CCGGGGCC | -0.338
52 | CCCCCCCC | -0.346
53 | CTGCTACA | -0.054
54 | CGCGGAGA | 0.109
55 | AAATGACA | 0.278
56 | ATTCCTGA | -0.00903
57 | TCGACTAA | 0.159
58 | CCGTGTCA | 0.121
59 | CAAGGAGC | -0.292
60 | CCCACAAG | 0.00789
61 | AAGGATCG | 0.0188
62 | ACCTATCC | 0.134
63 | CATGACTA | -0.16
64 | AATTAATG | 0.189
65 | AAATTTTC | 0.0153
66 | CCTGTTCA | -0.145
67 | CACTTAGC | -0.141
68 | ACTTGTGG | -0.0361
69 | AATCAATC | 0.13
70 | CTCCGTTA | -0.156
71 | GATGTTAA | 0.0332
72 | ACAGATAA | 0.0286
73 | AGCGTACC | -0.278
74 | CCCGAATC | -0.0424
75 | GTATGCGA | 0.00171

Row | Sequence | PBM E-score
76 | TCGCCTCA | 0.0235
77 | CCTTACTA | 0.0743
78 | ACACTGTA | -0.105
79 | TCCCAGAA | -0.0771
80 | TCTCTCCA | -0.196
81 | ATTATTTA | 0.243
82 | ATATTCGA | 0.0229
83 | ACGTGTAA | -0.0563
84 | AAGCGCAG | 0.0113
85 | ATCCTCCC | -0.283
86 | CATTACCA | 0.00384
87 | AGGCGGGG | -0.156
88 | CAAGGACC | 0.0568
89 | CCGTGCAC | -9e-05
90 | AAATGCCA | 0.0293
91 | GGCGCGAC | 0.175
92 | AGAAAGTA | 0.161
93 | GTGCTCAA | -0.054
94 | CATCGAGG | -0.0959
95 | AGTGCCCC | -0.293
96 | CCTCCCCC | -0.404
97 | TAGGGTAA | 0.155
98 | CGCCATTC | 0.0731
99 | ATCATGAT | 0.179
100 | ACGTGAAA | 0.119

Row | Sequence | PBM E-score
101 | ACCCACTA | 0.00464
102 | ACGTCAAG | -0.117
103 | AAGGCACA | -0.0168
104 | GGTCATAA | 0.0762
105 | CATGGTAC | 0.0378
106 | GGATGGGA | -0.136
107 | AGGTCCTA | -0.016
108 | GCTTGGTA | 0.129
109 | CTGATCAC | -0.188
110 | AAGAACGA | 0.165
111 | CACTTCTA | -0.0825
112 | TCGGTACA | 0.281
113 | CGCACTTA | -0.0705
114 | ACGTCAGG | -0.149
115 | CATCGGGG | -0.091
116 | AAAGGCTG | -0.149
117 | AAAAGCCA | 0.039
118 | CCCGTGAG | -0.0409
119 | CCCGCAGG | -0.165
120 | TAGTACAA | 0.321
121 | GCTTTGAA | -0.0376
122 | TGATCCCA | -0.0531
123 | ATGTAGTC | 0.0193
124 | CACTACAG | -0.0138
125 | GGTAACCA | -0.152

Row | Sequence | PBM E-score
126 | CGGAGTAC | -0.0117
127 | CCATTCAG | 0.00142
128 | CAGATGCC | -0.152
129 | GACGGGGA | -0.195
130 | CGCGGGCC | -0.105
131 | ACGTGAAC | -0.0481
132 | ATTGTGGA | 0.098
133 | CGTGGAAC | -0.0518
134 | ACTTGCAT | -0.0264
135 | GCTACGTA | -0.0664
136 | ATTGCAGC | -0.0794
137 | ACAGCGGG | -0.115
138 | ACCTAAAC | -0.0436
139 | CCCATACA | -0.0596
140 | ATGCCTGG | -0.0522
141 | AGAAACCA | 0.0249
142 | GGGGAAAA | 0.00854
143 | ATCCTAGC | -0.118
144 | CGGCTGCA | -0.055
145 | GTTCTACA | -0.231
146 | CATAGGAC | 0.234
147 | CAGAACGA | 0.11
148 | AGATCGCC | -0.123
149 | CTTTATTC | 0.105
150 | CCCTGGCC | -0.388

Row | Sequence | PBM E-score
151 | GCCACCGC | -0.116
152 | ATCGGTTA | 0.0545
153 | GAAGAAAA | 0.105
154 | ACCCGTGC | -0.169
155 | CATAGTCA | 0.0365
156 | CAAGATTG | 0.131
157 | CCTGCAGG | -0.12
158 | CACCCCTC | -0.305
159 | AGAAGAGG | -0.147
160 | ATAACTAC | 0.208
161 | CGACCTAA | 0.0905
162 | CGAGTCTC | -0.0316
163 | GTTTATAA | 0.153
164 | AATTTAGC | 0.0199
165 | AAAGTTCT | 0.0772
166 | ACGGCGAT | 0.0278
167 | ACGCGACG | 0.0188
168 | CACTACAA | 0.0813
169 | CTCCCCGA | 0.0019
170 | AAACTTCA | 0.12
171 | ACATAAGT | 0.165
172 | GATTAAGC | -0.0418
